# Laboratory results reported in PubChem BioAssay (NCATS).
# “And” between values parts separate entries of the source, which are not always exact repeats. Equal entries are not always repeated. Inconclusive means that the source gave no clear call. Such entries were picked first, then a sample of the others. Potencies beside an inconclusive call are fits to weak or partial responses and may not hold up. The source made the active and inactive calls. Calls follow the shape of the dose curve; as a rule, active = well fitted inhibition curve with a large enough effect; inconclusive = small, poorly fitted or top-dose-only effect; inactive = flat fitted curve, though single readings scatter.
# Experiment: qHTS for Inhibitors of Plasmodium falciparum (HB3) proliferation (AID 504318); also: nearly all actives have a fitted effect of over 60% in size
# Details: P. falciparum HB3 in erythrocytes, SYBR Green DNA, 72 h; series mostly up to 7.21 µM
# Procedure, shortened: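 Parasite growth measured as SYBR Green DNA fluorescence (ex 485, em 535 nm) after overnight lysis following 72 h culture at 37 °C, 0.3% parasitemia, 2.5% hematocrit. Values normalized against DMSO and 0.29 uM artemisinin controls, with plate-stack correction.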
# Potency is read from the fitted curve at half-maximal effect; tags tell the direction and shape of the fitted curve.
row,Compound,Potency
1,CC(=O)OC[C@H]1O[C@H](C#CC(C)(C)C)C=C[C@H]1OC(C)=O,"inconclusive: 0.0054 µM [inhibitor, partial curve, poor fit]"
2,COC(=O)C1=C(C(=O)OC)[C@@H]2N(C)c3ccccc3[C@@]23CCC(=O)N(Cc2cc(OC)c(OC)c(OC)c2)C3=N1,"inconclusive: 3.98 µM [inhibitor, partial curve, poor fit]"
3,COC(=O)CC=C1c2ccccc2C[C@H](OC)[C@@H]1C,"inconclusive: 4.15 µM [inhibitor, single point]"
4,CC1=CC[C@@H](C)O[C@@]2(C1)C(=O)Nc1cccc(Br)c12,"inconclusive: 1.51 µM [inhibitor, partial curve, poor fit] and inactive"
5,CCN1C(=O)N(S(=O)(=O)c2ccc(C)cc2)C(c2ccccc2)C(C(=O)OC)=C1C (configuration not stated),"inconclusive: 0.0675 µM [activator, full curve, poor fit]"
6,O=C(C=Cc1ccccc1)N1CCC[C@H]1CO,inactive
7,CC(CCN1CCCCc2nc(C)c(C)cc21)=NO[C@H](C)c1cn([C@H](CO)Cc2ccccc2)nn1,"inconclusive: 2.69 µM [inhibitor, single point]"
8,COC(=O)[C@H](COC(C)(C)C)NC(=O)O[C@@H]1C(=O)c2cc(OC)ccc2O[C@H]1c1ccc(OC)c(Br)c1,"inconclusive: 2.69 µM [inhibitor, partial curve, poor fit]"
9,CC=CC(=O)C[C@H]1CC[C@@H](C)[C@@H](CCO)O1,"inconclusive: 1.51 µM [inhibitor, single point]"
10,COc1ccc(C=CNC(=O)c2ccc(OC)cc2)cc1,"inconclusive: 1.51 µM [inhibitor, partial curve]"
11,COC(=O)[C@H]1[C@@H](C)N(Cc2ccccc2)C(=O)N[C@H]1c1ccccc1,inactive
12,COC(=O)[C@@H]1C=C[C@H](C)[C@H](CCOc2ccccc2)O1,"inconclusive: 2.13 µM [inhibitor, single point]"
13,CC1(OC(=O)c2cnc3ccccc3n2)C(=O)C=C2C=C(c3ccc(C#N)cc3)OC=C2C1=O (configuration not stated),inactive
14,CC(CCC(=O)OC[C@H]1O[C@H](C#Cc2ccccc2)C=C[C@H]1Oc1ccc(C)cc1)=NO[C@@H](C)CN1CCCCc2nc(C)c(C)cc21,inactive
15,COc1ccc2c(c1)CO[C@H]([C@H](O)CO)[C@H]2C=Cc1ccccc1,"inconclusive: 0.0043 µM [activator, full curve, poor fit]"
16,COC(=O)C1=C(C)N(Cc2ccccc2)C(=O)NC1c1cccc(C(F)(F)F)c1 (configuration not stated),inactive
17,C#CCCCON=C1C[C@@H](O)[C@H](O)[C@H]2[C@@H]3C(=O)N(Cc4ccc5c(c4)OCO5)C(=O)[C@@H]3CC[C@H]12,"inconclusive: 4.15 µM [inhibitor, single point]"
18,COc1ccc2c(c1)O[C@@H](c1cccc(C(F)(F)F)c1)[C@H](OC(=O)Nc1ccc(OC(F)F)cc1)C2=O,inactive
19,COc1ccc2c(c1)O[C@@H](c1cccc(C(F)(F)F)c1)[C@H](OC(=O)NC1CCCC1)C2=O,"inconclusive: 0.37 µM [inhibitor, partial curve, poor fit]"

row,Compound,Potency
1,COC(=O)CCC(=O)OC1(C)C(=O)C2=CN(Cc3ccco3)C(c3ccc(OC)cc3)=CC2=C(Br)C1=O (configuration not stated),"inconclusive: 4.78 µM [inhibitor, single point]"
2,COC(=O)CCC(=O)OC1(C)C(=O)C=C2C=C(C3CC3)N(CCc3c[nH]c4ccccc34)C=C2C1=O (configuration not stated),"inconclusive: 4.15 µM [inhibitor, single point] and inconclusive: 2.39 µM [inhibitor, single point]"
3,CC(C)OC(=O)[C@H](C)NC(=O)N1CCc2nc(-c3ccccc3)c3c(c2C1)CO[C@@H](C)C3,"inconclusive: 2.24 µM [inhibitor, partial curve, poor fit]"
4,COCCN1C=C2C(=O)C(C)(OC(=O)C3CCCC3)C(=O)C(c3ccccc3)=C2C=C1CCCC(=O)OC (configuration not stated),"inconclusive: 2.39 µM [inhibitor, partial curve, poor fit]"
5,COC(=O)[C@@]1(C=C[C@@H](C)[C@H](OC)c2ccccc2Br)[C@@H]2OCCC[C@@H]21,inactive
6,COc1ccc(O[C@H]2C=C[C@@H](c3ccccc3)O[C@H]2COC(=O)CCC(C)=NOC[C@@H](O)COCc2ccco2)cc1,"inconclusive: 1.04 µM [inhibitor, partial curve, poor fit]"
7,C=CCN1C=C2C(=O)C(C)(OC(=O)c3ccc(OC)cc3)C(=O)C(c3ccco3)=C2C=C1CCCC (configuration not stated),inconclusive: 0.7 nM [activator] and inactive
8,CC(=O)OC[C@H]1O[C@H](C#CCCCc2ccccc2)C=C[C@H]1OC(C)=O,"inconclusive: 0.675 µM [inhibitor, partial curve, poor fit]"
9,CC(C)=CCCC(C)=CCON=C1C[C@@H](O)[C@@H](O)[C@@H]2[C@H]3C(=O)N(Cc4ccc5c(c4)OCO5)C(=O)[C@@H]3CC[C@H]12,"inconclusive: 2.69 µM [inhibitor, partial curve, poor fit]"
10,COC(=O)[C@@H]1[C@@H](c2ccccc2)NC(=O)N(CCc2cc(OC)c(OC)c(OC)c2)[C@@H]1C,"inconclusive: 1.9 µM [inhibitor, partial curve, poor fit]"
11,COc1ccc(COC(=O)NN=C2C[C@@H](O)[C@@H](O)[C@@H]3[C@H]4C(=O)N(Cc5ccccc5)C(=O)[C@@H]4CC[C@@H]23)cc1,"inconclusive: 4.26 µM [inhibitor, single point]"
12,COc1cccc(CO[C@H]2C=C[C@@H](c3ccccc3)O[C@H]2COC(C)=O)c1,"inconclusive: 0.0169 µM [activator, full curve, poor fit]"
13,COC/C=C/C1=CC2=CC(=O)C(C)(OC(=O)c3cnc4ccccc4n3)C(=O)C2=CN1Cc1ccc2c(c1)OCO2 (configuration not stated),"inconclusive: 4.26 µM [inhibitor, partial curve, poor fit]"
14,COC(=O)C1=C(C(=O)OC)[C@@H]2N(C)c3ccccc3[C@@]23CCC(=O)N(CCCOC(C)C)C3=N1,"inconclusive: 0.657 µM [inhibitor, partial curve]"
15,COC(=O)C1=C(C(=O)OC)[C@@H]2N(C)c3ccccc3[C@@]23C[C@@H](C(=O)OC)N(S(=O)(=O)c2c(C)noc2C)C3=N1,"inconclusive: 4.26 µM [inhibitor, single point]"
16,COC1=C[C@H](C(=O)NC2CCN(Cc3ccccc3)CC2)[C@@]2(C)Cc3ccccc3[C@@H]2CC1=O,"inconclusive: 1.69 µM [inhibitor, single point]"
17,COc1ccc2c(c1)[C@H](C=Cc1ccccc1)[C@@H]([C@H](O)CO)O2,"inconclusive: 1.07 µM [inhibitor, partial curve, poor fit]"
18,CC(CCN1CCCCc2nc(C)c(C)cc21)=NO[C@H](C)c1cn([C@@H]2COC[C@@H]2O)nn1,inactive
